Substitutions are numbered along the chain they refer to. Names may count otherwise.

B1: huNRG1(S177-Q237)(3E9)::GG::huFcSEFL2 (Pb): Fc fusion of NRG1 variant SEQ ID NO:164 (protein)
chain: SHLVKCAENHKTFCVNGGECFVIEGSSNPSRYLCKCPNEFTGDRCQDVFLASFYKAEELYQGG[letters of human IgG1 Fc with R292C N297G V302C (EU numbers) not shown]
modifications: huNRG1(S177-Q237)(3F2)::GG::huFcSEFL2 (Pb)
B2: huNRG1(S177-Q237)(2G3)::GG::huFcSEFL2 (Pb): Fc fusion of NRG1 variant SEQ ID NO:156 (protein)
chain: SHLVKCGERQKSFCVNGGECYMVEDLSIPSRYLCKCPNEFTGDRCQKVFMASFYKAEELYQGG[letters of human IgG1 Fc with R292C N297G V302C (EU numbers) not shown]
modifications: huNRG1(S177-Q237)(2G3)::GG::huFcSEFL2 (Pb)
B3: huNRG1(S177-Q237)(3F2)::GG::huFcSEFL2 (Pb): Fc fusion of NRG1 variant SEQ ID NO:165 (protein)
chain: B1 chain with A7G, N9S, T12S, V22M, S26P, V48D, L50M
modifications: huNRG1(S177-Q237)(3F2)::GG::huFcSEFL2 (Pb)
B4: huNRG1(S177-Q237)(2G4)::GG::huFcSEFL2 (Pb): Fc fusion of NRG1 variant SEQ ID NO:157 (protein)
chain: B1 chain with H10E, I23V, S26L, N28I, L50M
modifications: huNRG1(S177-Q237)(2G4)::GG::huFcSEFL2 (Pb)
B5: huNRG1(S177-Q237)(3G9)::GG::huFcSEFL2 (Pb): Fc fusion of NRG1 variant SEQ ID NO:167 (protein)
chain: B2 chain with R9S, Q10H, Y21F, I28N, Y32F, V48D
modifications: huNRG1(S177-Q237)(3G9)::GG::huFcSEFL2 (Pb)
B6: huNRG1(S177-Q237)(3G3)::GG::huFcSEFL2 (Pb): Fc fusion of NRG1 variant SEQ ID NO:166 (protein)
chain: B2 chain with Q10E, S12T, Y21F, V23I, D25H, Y32F, K47E, V48D
modifications: huNRG1(S177-Q237)(3G3)::GG::huFcSEFL2 (Pb)
B7: huNRG1(S177-Q237)(3H8)::GG::huFcSEFL2 (Pb): Fc fusion of NRG1 variant SEQ ID NO:171 (protein)
chain: B2 chain with R9K, Q10H, D25G, L26S, K47E, V48D
modifications: huNRG1(S177-Q237)(3H8)::GG::huFcSEFL2 (Pb)
B8: huNRG1(S177-Q237)(3E6)::GG::huFcSEFL2 (Pb): Fc fusion of NRG1 variant SEQ ID NO:163 (protein)
chain: B1 chain with N9K, T12S, F21Y, N28I, Y32F, D47K, V48D, L50M
modifications: huNRG1(S177-Q237)(3E6)::GG::huFcSEFL2 (Pb)
B9: huNRG1(S177-Q237)(_200E)::GG::huFcSEFL2 (Pb): Fc fusion of NRG1 variant SEQ ID NO:172 (protein)
chain: B2 chain with G7A, R9K, Q10E, S12T, Y21F, I28N, K47N, V48Y, F49V
modifications: huNRG1(S177-Q237)(_200E)::GG::huFcSEFL2 (Pb)
B10: huNRG1(S177-Q237)(3D6)::GG::huFcSEFL2 (Pb): Fc fusion of NRG1 variant SEQ ID NO:161 (protein)
chain: B1 chain with A7G, N9S, H10D, T12S, N28I, Y32F, V48F, L50M
modifications: huNRG1(S177-Q237)(3D6)::GG::huFcSEFL2 (Pb)
B11: huNRG1(S177-Q237)(2H7)::GG::huFcSEFL2 (Pb): Fc fusion of NRG1 variant SEQ ID NO:158 (protein)
chain: B2 chain with R9K, Q10E, M22V, Y32F, F49V
modifications: huNRG1(S177-Q237)(2H7)::GG::huFcSEFL2 (Pb)
B12: huNRG1(S177-Q237)(3B8)::GG::huFcSEFL2 (Pb): Fc fusion of NRG1 variant SEQ ID NO:160 (protein)
chain: B2 chain with Q10D, Y21F, D25R, L26S, K47D, V48F, M50L
modifications: huNRG1(S177-Q237)(3B8)::GG::huFcSEFL2 (Pb)
B13: huNRG1(S177-Q237)(3D8)::GG::huFcSEFL2 (Pb): Fc fusion of NRG1 variant SEQ ID NO:162 (protein)
chain: B2 chain with R9K, Q10D, S12T, Y21F, Y32F, K47D, V48F
modifications: huNRG1(S177-Q237)(3E6)::GG::huFcSEFL2 (Pb)
B14: huNRG1(S177-Q237)(3H5)::GG::huFcSEFL2 (Pb): Fc fusion of NRG1 variant SEQ ID NO:168 (protein)
chain: B2 chain with Q10H, M22V, D25R, L26P, Y32F, V48D, M50L
modifications: huNRG1(S177-Q237)(3H5)::GG::huFcSEFL2 (Pb)
B15: huNRG1(S177-Q237)(3A7)::GG::huFcSEFL2 (Pb): Fc fusion of NRG1 variant SEQ ID NO:159 (protein)
chain: B1 chain with N9K, H10E, T12S, N28I, Y32F, D47K, F49V, L50M
modifications: huNRG1(S177-Q237)(3A7)::GG::huFcSEFL2 (Pb)
B16: huNRG1(S177-F229)(NRGE1C): (G4A)2:G4::huFcSEFL2 (Pb): Fc fusion of NRG1 variant SEQ ID NO:117 (protein)
chain: SHLVKCGEKHKSFCVNGGECFMIEGPSNPSRYLCKCPNEFTGDRCQEDFMASFGGGGAGGGGAGGGG[letters of human IgG1 Fc with R292C N297G V302C (EU numbers) not shown]
modifications: huNRG1(S177-F229)(NRGE1C)::(G4A)2G4::huFcSEFL2 (Pb)

In one assay the target is T1, ErbB3 (Rattus norvegicus, UniProt Q62799).
T1 construct: forming the ErbB2/ErbB4 complex in cardiomyocytes and the ErbB2/ErbB3 complex in Schwann cells; endogenous in cells; host or cells: rat Schwann cells
T1 sequence (Q62799 20-1339): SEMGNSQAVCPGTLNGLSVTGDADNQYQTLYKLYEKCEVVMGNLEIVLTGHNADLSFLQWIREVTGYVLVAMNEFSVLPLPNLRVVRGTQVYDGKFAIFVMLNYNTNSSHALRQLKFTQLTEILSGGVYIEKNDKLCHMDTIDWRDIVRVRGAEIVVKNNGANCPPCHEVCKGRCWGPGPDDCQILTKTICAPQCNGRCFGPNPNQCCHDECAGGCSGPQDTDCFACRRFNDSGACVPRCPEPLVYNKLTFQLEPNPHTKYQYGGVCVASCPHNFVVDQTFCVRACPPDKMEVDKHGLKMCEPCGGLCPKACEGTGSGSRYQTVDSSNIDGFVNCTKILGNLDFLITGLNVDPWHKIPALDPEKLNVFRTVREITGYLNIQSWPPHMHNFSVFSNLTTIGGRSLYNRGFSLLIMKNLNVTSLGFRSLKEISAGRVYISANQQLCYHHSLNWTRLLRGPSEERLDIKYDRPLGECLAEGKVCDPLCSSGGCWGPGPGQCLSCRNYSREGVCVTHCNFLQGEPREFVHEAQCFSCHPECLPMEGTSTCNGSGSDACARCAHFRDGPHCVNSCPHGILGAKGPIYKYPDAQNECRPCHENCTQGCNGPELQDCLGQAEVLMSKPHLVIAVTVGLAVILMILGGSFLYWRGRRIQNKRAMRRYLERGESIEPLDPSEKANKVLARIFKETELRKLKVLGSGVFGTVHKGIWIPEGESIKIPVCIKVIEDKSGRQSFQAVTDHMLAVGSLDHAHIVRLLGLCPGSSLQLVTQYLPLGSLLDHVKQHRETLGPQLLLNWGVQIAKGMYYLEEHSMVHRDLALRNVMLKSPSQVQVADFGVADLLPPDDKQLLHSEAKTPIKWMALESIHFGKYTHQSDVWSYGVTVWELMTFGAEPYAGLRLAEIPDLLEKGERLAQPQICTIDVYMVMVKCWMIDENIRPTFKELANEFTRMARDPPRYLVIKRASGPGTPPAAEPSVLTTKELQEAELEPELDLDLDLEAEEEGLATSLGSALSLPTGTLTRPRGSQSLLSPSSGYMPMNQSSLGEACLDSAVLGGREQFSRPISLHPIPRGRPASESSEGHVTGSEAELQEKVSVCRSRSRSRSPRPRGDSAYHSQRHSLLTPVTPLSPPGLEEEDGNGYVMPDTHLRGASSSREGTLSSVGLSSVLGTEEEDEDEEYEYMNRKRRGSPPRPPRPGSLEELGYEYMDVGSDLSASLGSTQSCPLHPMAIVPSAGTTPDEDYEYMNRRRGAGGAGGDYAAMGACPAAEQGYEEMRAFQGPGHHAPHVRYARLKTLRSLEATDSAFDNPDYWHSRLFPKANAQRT
T1 sequence (P06494 23-1257 partner): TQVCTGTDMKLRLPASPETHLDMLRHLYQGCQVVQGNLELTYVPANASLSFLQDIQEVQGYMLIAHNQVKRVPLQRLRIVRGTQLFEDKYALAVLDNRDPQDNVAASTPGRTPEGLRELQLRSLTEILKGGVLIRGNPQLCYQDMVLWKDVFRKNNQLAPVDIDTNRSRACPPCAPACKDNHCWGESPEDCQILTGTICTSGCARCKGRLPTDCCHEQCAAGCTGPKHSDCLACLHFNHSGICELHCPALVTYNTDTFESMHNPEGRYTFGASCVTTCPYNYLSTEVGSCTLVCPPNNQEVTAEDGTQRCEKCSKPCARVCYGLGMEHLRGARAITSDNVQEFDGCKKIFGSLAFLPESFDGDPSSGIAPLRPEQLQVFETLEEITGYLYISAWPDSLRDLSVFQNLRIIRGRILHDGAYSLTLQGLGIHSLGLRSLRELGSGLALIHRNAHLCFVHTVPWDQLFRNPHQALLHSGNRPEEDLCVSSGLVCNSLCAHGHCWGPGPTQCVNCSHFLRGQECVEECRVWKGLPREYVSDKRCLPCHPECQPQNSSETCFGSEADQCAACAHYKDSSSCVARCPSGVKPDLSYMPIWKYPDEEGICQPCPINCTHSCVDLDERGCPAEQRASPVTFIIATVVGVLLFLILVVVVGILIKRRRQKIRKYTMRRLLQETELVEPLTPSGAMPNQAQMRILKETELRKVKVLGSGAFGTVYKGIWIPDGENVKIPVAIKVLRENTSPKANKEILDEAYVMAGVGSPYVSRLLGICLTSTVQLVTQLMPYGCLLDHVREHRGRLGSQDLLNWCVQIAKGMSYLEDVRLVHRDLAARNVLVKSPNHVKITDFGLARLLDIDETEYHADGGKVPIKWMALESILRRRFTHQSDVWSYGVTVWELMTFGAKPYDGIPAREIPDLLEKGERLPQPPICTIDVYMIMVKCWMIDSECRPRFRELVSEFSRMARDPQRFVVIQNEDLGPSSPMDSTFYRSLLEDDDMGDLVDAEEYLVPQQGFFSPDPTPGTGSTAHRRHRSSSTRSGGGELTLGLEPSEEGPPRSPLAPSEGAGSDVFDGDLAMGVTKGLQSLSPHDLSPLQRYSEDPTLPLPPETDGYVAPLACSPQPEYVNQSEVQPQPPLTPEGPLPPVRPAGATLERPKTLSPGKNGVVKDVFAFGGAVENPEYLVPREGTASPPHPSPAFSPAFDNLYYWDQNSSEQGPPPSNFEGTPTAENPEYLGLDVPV
Put plainly: In vitro phosphorylation of Akt in rat Schwann cells. In kind it is cell-based. The conditions noted are these: Akt (Serine 473) phosphorylation, 15 minutes treatment, read-out: Schwann cells (SC) (ErbB3) Avg EC50. As to the method: (§1) In Vitro Phosphorylation of Akt in Neonatal Rat Cardiomyocytes and Rat Schwann Cells by Neuregulin Variants
(§2) Specificity of neuregulin variants towards cardiomyocytes (ErbB4) versus Schwann cells (ErbB3) was tested by measuring Akt activity generated by formation of the ErbB2/ErbB4 and ErbB2/ErbB3 complexes. Upon activation by neuregulin, the ErbB4 and ErbB3 receptors dimerize preferentially with the ErbB2 co-receptor, forming the ErbB2/ErbB4 complex in cardiomyocytes and the ErbB2/ErbB3 complex in Schwann cells, both of which signal through the Akt pathway. Neonatal rat cardiomyocytes were isolated from hearts of Sprague Dawley rat pups at 0 to 4 days old according to manufacturer's protocol using the Neomyt kit and plated on Surecoat plates in NS media containing serum (all from Cellultron Life Technologies, Baltimore, MD). Rat Schwann cells were plated in Poly-D-Lysine coated plates with Dulbecco's modified Eagle's media (DMEM) supplemented with fetal bovine serum (Thermo Fisher) and forskolin (Millipore Sigma).
(§3) After a 24-hour incubation in a humidified incubator maintained at 37° C. and 5% CO2, cardiomyocytes and Schwann cells were washed with serum free media and incubated an additional 16 hours in DMEM supplemented with bovine serum albumin (Sigma). Both cell lines were then treated with titrations of the neuregulin variant molecules for 15 minutes, upon which cells were lysed in lysis buffer (Meso Scale Discovery (MSD)). For detection of Akt phosphorylation, lysates were added to the Multi-Spot 96-Well 4-Spot Phospho (Serine 473)/Total Akt plates (MSD), incubated according to the manufacturer's protocol and read in the SECTOR Imager 6000 (MSD). For both cell assays, the percent phosphorylation of Akt was calculated by multiplying the phospho Akt signal by 2, then dividing by the phospho Akt signal added to the total Akt signal and then multiplying by 100. The phosphorylation of Akt data points were fitted using a log (agonist) versus response, variable slope (4 parameters) analysis in GraphPad Prism to generate EC50 curves. The CM % agonism reflect the top value of the data points.
For orientation: EC50 means the concentration needed to bring the measured effect to its halfway point. B1: the concentration giving a half-maximal response (EC50) was above 3000 nM.

As for B2, the EC50 was 60.8 nM.

In the case of B3, the concentration giving a half-maximal response (EC50) is above 10000 nM.

On to B4, for which the concentration for a half-maximal effect (EC50) was found to be 1000 nM.

For B5, the EC50 is above 10000 nM.

With B6, the EC50 was above 10000 nM.

In the case of B7, the EC50 was above 10000 nM.

Turning to B8, the EC50 was above 10000 nM.

For B9, the 50% effective concentration (EC50) stood at 4.82 nM.

For B10, the concentration for a half-maximal effect (EC50) is above 10000 nM.

Consider B11, for which the concentration giving a half-maximal response (EC50) turned out to be 110 nM.

In the case of B12, the concentration giving a half-maximal response (EC50) is 3000 nM.

As to B13, the half-maximal effective concentration (EC50) is above 3000 nM.

Regarding B14, the half-maximal effective concentration (EC50) was above 10000 nM.

Turning to B15, the half-maximal effective concentration (EC50) was determined as 46.5 nM.

In the case of B16, the EC50 was above 10000 nM.

The target in the next assay is T2, ErbB4 (Rattus norvegicus, UniProt Q62956).
T2 construct: forming the ErbB2/ErbB4 complex in cardiomyocytes and the ErbB2/ErbB3 complex in Schwann cells; endogenous in cells; host or cells: primary neonatal rat cardiomyocytes (Sprague Dawley pups, 0 to 4 days old)
T2 sequence (Q62956 26-1308): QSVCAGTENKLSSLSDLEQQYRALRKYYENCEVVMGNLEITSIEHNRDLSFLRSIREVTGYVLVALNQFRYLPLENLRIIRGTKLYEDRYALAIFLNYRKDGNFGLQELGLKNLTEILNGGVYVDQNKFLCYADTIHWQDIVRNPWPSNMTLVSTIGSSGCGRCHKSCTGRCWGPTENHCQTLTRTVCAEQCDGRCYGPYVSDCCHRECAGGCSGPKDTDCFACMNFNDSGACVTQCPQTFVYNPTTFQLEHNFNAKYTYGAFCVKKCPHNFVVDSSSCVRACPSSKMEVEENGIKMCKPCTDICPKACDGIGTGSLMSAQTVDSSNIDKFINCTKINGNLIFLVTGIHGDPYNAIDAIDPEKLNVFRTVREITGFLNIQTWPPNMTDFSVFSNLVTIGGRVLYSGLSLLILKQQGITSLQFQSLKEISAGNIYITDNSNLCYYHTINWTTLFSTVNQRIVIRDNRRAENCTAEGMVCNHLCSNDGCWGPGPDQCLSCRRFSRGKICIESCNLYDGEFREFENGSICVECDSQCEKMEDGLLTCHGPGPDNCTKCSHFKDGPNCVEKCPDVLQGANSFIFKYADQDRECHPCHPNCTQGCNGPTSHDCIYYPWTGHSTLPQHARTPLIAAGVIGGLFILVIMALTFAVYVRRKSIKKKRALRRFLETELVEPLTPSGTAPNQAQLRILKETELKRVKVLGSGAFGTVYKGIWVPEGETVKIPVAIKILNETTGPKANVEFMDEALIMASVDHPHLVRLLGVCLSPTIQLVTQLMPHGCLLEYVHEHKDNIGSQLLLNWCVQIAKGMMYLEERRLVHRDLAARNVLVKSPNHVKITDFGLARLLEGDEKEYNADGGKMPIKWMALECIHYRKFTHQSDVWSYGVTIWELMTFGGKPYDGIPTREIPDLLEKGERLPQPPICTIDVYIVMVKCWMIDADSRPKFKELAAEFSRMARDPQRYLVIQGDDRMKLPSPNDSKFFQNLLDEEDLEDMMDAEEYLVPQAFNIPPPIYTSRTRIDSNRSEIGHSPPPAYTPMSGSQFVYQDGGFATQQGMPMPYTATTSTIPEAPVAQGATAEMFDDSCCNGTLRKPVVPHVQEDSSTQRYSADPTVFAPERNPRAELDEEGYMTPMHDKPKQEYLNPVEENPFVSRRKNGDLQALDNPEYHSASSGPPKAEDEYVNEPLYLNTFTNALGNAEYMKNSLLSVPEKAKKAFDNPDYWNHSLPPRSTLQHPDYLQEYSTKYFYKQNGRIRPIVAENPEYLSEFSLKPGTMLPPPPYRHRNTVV
T2 sequence (P06494 23-1257 partner): as the sequence (P06494 23-1257 partner) above
Put plainly: In vitro phosphorylation of Akt in neonatal rat cardiomyocytes. In kind it is cell-based. As to conditions: Akt (Serine 473) phosphorylation, neonatal rat cardiomyocytes, 15 minutes treatment; read-out: Cardiomyocyte (CM) (ErbB4) Avg EC50. As to the method: as §1, §2, §3
With B1, the EC50 was found to be 2.68 nM.

As for B2, the EC50 turned out to be 0.208 nM.

As to B3, the EC50 is 0.738 nM.

For B4, the EC50 was determined as 2.42 nM.

For the molecule B5, the EC50 was 0.581 nM.

As for B6, the concentration giving a half-maximal response (EC50) was found to be 1.84 nM.

As for B7, the EC50 came out at 0.276 nM.

For B8, the EC50 is 0.35 nM.

In the case of B9, the EC50 was determined as 0.452 nM.

As for B10, the EC50 stood at 2.6 nM.

In the case of B11, the EC50 amounted to 0.3 nM.

For the molecule B12, the EC50 came out at 1.4 nM.

As for B13, the half-maximal effective concentration (EC50) is 0.51 nM.

B14: the EC50 stood at 1.27 nM.

On to B15, for which the 50% effective concentration (EC50) turned out to be 0.366 nM.

B16: the EC50 stood at 0.49 nM.

Staying with this assay, now noted: ratio of EC50s Schwann cells/cardiomyocytes.
With B1, the “Selectivity SC/CM” value is listed as above 8500.

For B2, the “Selectivity SC/CM” value was found to be 292.

In the case of B3, the “Selectivity SC/CM” value was above 10000.

Consider B4, for which the “Selectivity SC/CM” value turned out to be 414.

As to B5, the “Selectivity SC/CM” value is above 10000.

On to B6, for which the “Selectivity SC/CM” value is above 5400.

As to B7, the “Selectivity SC/CM” value is recorded as above 10000.

Regarding B8, the “Selectivity SC/CM” value is recorded as above 10000.

Turning to B9, the “Selectivity SC/CM” value came out at 11.

On to B10, for which the “Selectivity SC/CM” value was above 3800.

Turning to B11, the “Selectivity SC/CM” value worked out at 368.

As to B12, the “Selectivity SC/CM” value worked out at 2147.

Turning to B13, the “Selectivity SC/CM” value is listed as above 5800.

Regarding B14, the “Selectivity SC/CM” value is above 7800.

With B15, the “Selectivity SC/CM” value is given as 127.

Consider B16, for which the “Selectivity SC/CM” value is on record as above 10000.

The same assay, now with this note: top value of the Akt phosphorylation data points in cardiomyocytes; wild-type control 100.
With B2, the “CM % Agonism AVG” value is reported as “Full”.

Turning to B5, the “CM % Agonism AVG” value was “Full”.

In the case of B7, the “CM % Agonism AVG” value was “Full”.

Turning to B8, the “CM % Agonism AVG” value is recorded as “Full”.

Take B9: the “CM % Agonism AVG” value is given as “Full”.

Turning to B14, the “CM % Agonism AVG” value is “Full”.

B16: the “CM % Agonism AVG” value was found to be 82.7%.

For the origin of these results see patent US12692294B2, “Engineered NRG-1 variants with improved selectivity toward ErbB4 but not against ErbB3” (Amgen Inc., priority 2021, dated 2026).
